Assay [1] deals with T1, GpIbα (mt) M239V residues 1-269 with C-terminal (His)6 (human, UniProt P07359 17-285, M239V).
T1 construct: also called GpIbα 1-269
Kind of assay: Biacore 2000, GpIbα 1-269 captured on immobilized antibody 2D4, A1 5-100 nM as analyte, 25° C., 1:1 Langmuir model; SD 2.7. (SPR reads the build-up and loss of mass on a sensor chip optically.)

Assay [2] has as its target T2, GpIbα (mt) M239V residues 1-290 with C-terminal Arg-(His)6 (human, UniProt P07359 17-306, sulfation at 0, 1, 2 or 3 sites, likely tyrosine residues in the anionic region; which sulfation form was used in Biacore is not stated).
T2 chain: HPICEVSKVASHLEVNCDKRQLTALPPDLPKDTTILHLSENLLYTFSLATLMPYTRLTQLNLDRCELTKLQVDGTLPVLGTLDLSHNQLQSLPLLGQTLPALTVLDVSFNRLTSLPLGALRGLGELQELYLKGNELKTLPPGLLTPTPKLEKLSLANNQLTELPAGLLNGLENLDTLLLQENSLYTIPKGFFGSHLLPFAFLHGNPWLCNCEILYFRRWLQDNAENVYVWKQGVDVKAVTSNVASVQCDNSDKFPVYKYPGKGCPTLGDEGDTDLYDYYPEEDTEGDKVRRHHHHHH
Kind of assay: Biacore 2000, GpIbα 1-290 captured on immobilized antibody 2D4, A1 5-100 nM as analyte, 25° C., 1:1 Langmuir model; SD 2.1.

The target in assay [3] is T2, GpIbα (mt) M239V residues 1-290 with …. In words: Biacore, GpIbα 1-290 captured on 2D4.
For assay [4] the target is unchanged. Kind of assay: Biacore kinetic analysis; rate constants not given.
For assay [5], the target named is T3, GpIbα (wt) residues 1-290 with C-terminal Arg-(His)6 (human, UniProt P07359 17-306, sulfation at 0, 1, 2 or 3 sites, likely tyrosine residues in the anionic region; which sulfation form was used in Biacore is not stated).
T3 construct: Expressed in BHK cells and secreted; also called GpIbα 1-290; wild-type GpIbα (1-290)
Kind of assay: Biacore 2000, GpIbα 1-290 captured on immobilized antibody 2D4, A1 5-100 nM as analyte, 25° C., 1:1 Langmuir model; SD 14.0.

For assay [6], the target named is T4, GpIbα (wt) residues 1-269 with C-terminal (His)6 (human, UniProt P07359 17-285).
T4 construct: Lacks the anionic region; also called GpIbα 1-269
In words: Biacore 2000, GpIbα 1-269 captured on immobilized antibody 2D4, A1 5-100 nM as analyte, 25° C., 1:1 Langmuir model; SD 14.4.

The target of assay [7] is T1, GpIbα (mt) M239V residues 1-269 with …. In words: Biacore 2000, GpIbα 1-269 captured on immobilized antibody 2D4, A1 5-100 nM as analyte, 25° C., 1:1 Langmuir model; SD 2.2.
Assay [8] has as its target T2, GpIbα (mt) M239V residues 1-290 with …. In words: Biacore 2000, GpIbα 1-290 captured on immobilized antibody 2D4, A1 5-100 nM as analyte, 25° C., 1:1 Langmuir model; SD 1.6.
In assay [9] the target is T3, GpIbα (wt) residues 1-290 with …. Kind of assay: Biacore 2000, GpIbα 1-290 captured on immobilized antibody 2D4, A1 5-100 nM as analyte, 25° C., 1:1 Langmuir model; SD 3.5.
Assay [10] has the same target. Kind of assay: Biacore, GpIbα 1-290 captured on 2D4.
Assay [11] addresses T4, GpIbα (wt) residues 1-269 with …. In words: Biacore 2000, GpIbα 1-269 captured on immobilized antibody 2D4, A1 5-100 nM as analyte, 25° C., 1:1 Langmuir model; SD 3.14.

B1: Wild-type vWF-A1 domain […] (ligand)
chain: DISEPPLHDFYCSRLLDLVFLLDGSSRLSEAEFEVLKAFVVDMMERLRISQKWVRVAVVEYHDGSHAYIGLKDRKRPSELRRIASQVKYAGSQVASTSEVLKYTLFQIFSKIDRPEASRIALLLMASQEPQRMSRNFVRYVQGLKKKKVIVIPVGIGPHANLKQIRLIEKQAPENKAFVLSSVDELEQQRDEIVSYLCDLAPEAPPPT
notes: Expressed in Pichia pastoris GS115 from pPIC9; also called A1(wt); wt-A1
In general, Kd refers to the equilibrium constant for the complex coming apart. The low end stands for a tighter complex, the high end for a looser complex. For B1, the Kd in assay [1] amounted to 12.6 nM; in [2], 11.1 nM; in assay [5], 33.3 nM; in [6], 38.4 nM. Moreover, the “fold increase in affinity against GpIbα (wt) + A1 (wt)” value in assay [3] is 3 fold. Moreover, in assay [4], the “fold increase in the association rate against wild-type GpIbα” value was found to be 3 fold.

B2: Mutant vWF-A1 R543Q, […] (ligand)
chain: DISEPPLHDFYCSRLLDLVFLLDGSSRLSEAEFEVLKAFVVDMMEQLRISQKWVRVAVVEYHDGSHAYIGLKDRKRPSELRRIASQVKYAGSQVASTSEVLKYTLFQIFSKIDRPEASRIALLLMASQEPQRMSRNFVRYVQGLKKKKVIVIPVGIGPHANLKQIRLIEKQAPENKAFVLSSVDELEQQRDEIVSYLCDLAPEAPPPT
notes: also called A1(mt); A1 mutant (R543Q)
Consider B2, for which the Kd in assay [7] amounted to 7.5 nM; in assay [8], 5.8 nM; in assay [9], 13.6 nM; in assay [11], 16.5 nM. The “fold increase in affinity against GpIbα (wt) + A1 (wt)” value in assay [3] came out at 5.7 fold; in [10], 2.5 fold.

The values are drawn from patent US20050192224A1 (Ablynx, published 2005).
